The values below come from the supplement of paper PMC10338343.

± gives the standard deviation. Over roughly 5,500 sequences, “pre-steady-state target cleavage rate” has its median near 0.1; the highest 2% begin near 0.64. The list shows a part of the results, in another mix than the full data.

This assay deals with MIWI (PIWIL1) piRISC loaded with piRNA #2 (30 nt). The experiment in a line: pre-steady-state target cleavage rate (min^-1); MIWI and MILI are mouse PIWI proteins and EfPiwi is from a freshwater sponge; tags in brackets are library labels; higher = faster piRNA-guided slicing of the target. The settings on record: guide: piRNA #2 5'p-UUAGGUAACCCAGUAGAUCCAGAGGAAUUC; auxiliary factor: 500 nM mouse GTSF1. In outline: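 In Cleave-'n-Seq, a transcribed, DNA-blocked target RNA library (0.1 nM) was combined with 1 nM active affinity-purified piRISC bearing one synthetic guide, with or without 500 nM GTSF1 partner protein. Reactions ran in HEPES–potassium acetate buffer at 33 °C for 0–8 or 0–960 min. Uncleaved targets were sequenced and normalised to depth and to weakly complementary targets, three trials were pooled, and k3 was capped at 0.0001 min^-1. The pre-steady-state cleavage rate was obtained by fitting a burst-and-steady-state model.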
In the case of GAAUUGCACUGGAUCUACUGGGUUACCUAA, the “pre-steady-state target cleavage rate” value was determined as 0.0867 ± 0.028.
For CUAUUCCUCAGGAUCUACUGGCUUACCUAA the value was 0.0647 ± 0.013; for CUUAACCUCUCGAUCUACUCGGUUACCUAA, 0.129 ± 0.013.
With CUUUUCCUCUCGAUCUACUGGGUAACCUAA the figure was 0.345 ± 0.033; with CUAUUCCUCAGGAUCUACUGGGUAACCUAA, 0.206 ± 0.042.
With CUUAACCUCUGGAUCUACUCCGUUACCUAA the figure was 0.0247 ± 0.0072; with CUUAACCUCUGGAUCUAGUGGGUAACCUAA, 0.0284 ± 0.0067.
For the sequence CUUAAGGUCUCGAUCUAGUGGGUUACCUAA, the “pre-steady-state target cleavage rate” value is 0.0405 ± 0.0073.
On to CUUAACCUGUGGAUCUACUGGGAUACCUAA, for which the “pre-steady-state target cleavage rate” value was found to be 0.14 ± 0.017.
GAUUUCCUCUGGAACUACUGGGUUACCUAA: the “pre-steady-state target cleavage rate” value is 0.225 ± 0.04.
For CUUUCCUCUGGAUCUACUGGGUUACCUAA the value was 0.349 ± 0.052; for GAAUUCCUCUGGAUGAACUGGGUUACCUAA, 0.249 ± 0.033.
For CUUAAGGACUGGAUCUACUGGGUUACGUAA the value was 0.413 ± 0.093.
For CUUAUCCUCUGGAUCUACUGGGGUUACCUAA the value was 0.0233 ± 0.0067; for CAAUACCUCUGGAUCUACUGGGUAACCUAA, 0.18 ± 0.035.
In the case of CUUAAGGUCUGGUUCAACUGGGUUACCUAA, the “pre-steady-state target cleavage rate” value was 0.141 ± 0.032.
For CUUAAGCUCUGGUCUACUGGGUUACCUAA the value was 0.0318 ± 0.0076; for CUUAACCUCAGGAUCUAGUGGGUUACCUAA, 0.128 ± 0.017.
With CUUAAGCUCAGCAUCUACUGGGUUACCUAA the figure was 0.169 ± 0.017.
For GAAUUGCUCUGGAUCUACUGGGAUACCUAA, the “pre-steady-state target cleavage rate” value is 0.077 ± 0.024.
With CUUAAGGACUUGGAUCUACUGGGUUACCUAA the figure was 0.153 ± 0.033; with CUUAACCUCUGGAUCUUCUCGGUUACCUAA, 0.0364 ± 0.0059.
With CUUAAGCUGCUGGAUCUACUGGGUUACCUAA the figure was 0.0922 ± 0.012; with CUUAAGGUCUGGAUCUACUGGGUUUACCUAA, 0.269 ± 0.037; with CUUAACCUAUGGAUCUACUGGGUUACCUAA, 0.424 ± 0.034.
With CUAUUCCUCUGGAUCUACUGGAGUUACCUAA the figure was 0.00422 ± 0.0041.
As to CUUAACCUCUCGAUCAACUGGGUUACCUAA, the “pre-steady-state target cleavage rate” value was determined as 0.429 ± 0.035.
For CUUAAGCUGUGGAUCUACUGCGUUACCUAA the value was 0.13 ± 0.044; for GAAUUCCUUGGAUCUACUGGGUUACCUAA, 0.597 ± 0.05; for CUUUUCGACUGGAUCUACUGGGUUACCUAA, 0.389 ± 0.052.
With CUUAUCCUCUCGAUCUACUGGCUUACCUAA the figure was 0.175 ± 0.014; with CUUAAGCUCUGGAUCUACUGGGUAUGCUAA, 0.0163 ± 0.0045; with CUUAAGGUCUGCAUCUACUGCGUUACCUAA, 0.0618 ± 0.018.
Turning to GAAUUCCUCAGGAACUACUGGGUUACCUAA, the “pre-steady-state target cleavage rate” value was determined as 0.301 ± 0.06.
For CUUAAGGACUGGAAUCUACUGGGUUACCUAA the value was 0.0272 ± 0.022; for CUUAACCUCUGGAUCUACUGCGAUACCUAA, 0.125 ± 0.02.
For CUUAAGGAGUGGAACUACUGGGUUACGUAA the value was 0.099 ± 0.031; for GAAUUCCUCUGGAUCUCCUGGGUUACCUAA, 0.237 ± 0.063.
For CUUAUCCUCUGGAUCUACUGGCUUACCUUA the value was 0.0614 ± 0.018; for CUUAAGCUCUGAUCUACUGGGUUACCUAA, 0.0872 ± 0.01; for CUUAACCUCAGGAUCUACUGGGUUACCUUA, 0.414 ± 0.059.
For the sequence CUUAUCCUCUAGAUCUACUGGGUUACCUAA, the “pre-steady-state target cleavage rate” value is 0.5 ± 0.035.
For the sequence CUUAACCUCGGAUCUACUGGGUUACCUAA, the “pre-steady-state target cleavage rate” value is 0.31 ± 0.063.
For the sequence CUUAAGCUCUGCUUCUACUGGGUUACCUAA, the “pre-steady-state target cleavage rate” value is 0.226 ± 0.043.
With GAAUUCCUCUGGAUCUAGUCGGUUACCUAA the figure was 0.0101 ± 0.0025; with CUUUUCCUCACCAUCUACUGGGUUACCUAA, 0.278 ± 0.04; with CUUAAGGUCUGGAUCUAGAGGGUUACCUAA, 0.0111 ± 0.0025.
For CUUUUCCUCUGGAUCUACUGGGUUAGCCUAA the value was 0.47 ± 0.049; for CUUAAGGUGUGGAUCUUCUGGGUUACCUAA, 0.0144 ± 0.007.
With CUUAAGGAGACGAUCUACUGCGUUACCUAA the figure was 0.00291 ± 0.0026; with CUUUUCCUCAGGAACUACUGGGUUACCUAA, 0.327 ± 0.034.
Take CUUAAGGAGUGGAUCUACUGCGUUACCUUA: the “pre-steady-state target cleavage rate” value came out at 0.016 ± 0.0041.
For CUUAUCCUCUGGAUCUACUGGGUAACCUUA the value was 0.212 ± 0.059; for CUUAAGGAGACCUAGUACUGGGCUUACCUAA, less than 0.0001.
For CUUAUCCUCUGAUCUACUGGGUUACCUAA the value was 0.236 ± 0.029.
For “CUAUUCCUCUGGAUCUACUGGGUUACCUAU [g2:g28:cont:t1U]” the value was 0.313 ± 0.04; for CUUUUCCUCUGGUUCUACUGGGAUACCUAA, 0.0748 ± 0.021.
As for CUUAAGGAGUGGAUCUACUGGGUUACGAUA, the “pre-steady-state target cleavage rate” value was determined as 0.0107 ± 0.0076.
For GAAUACCUCUGGAUCAACUGGGUUACCUAA the value was 0.169 ± 0.034; for CUUAUCCUCUGGAUCACUGGGUUACCUAA, 0.0212 ± 0.0064; for CUUAUCCUCUGGAUCUACUGCGUUACCUUA, 0.29 ± 0.042.
With CUUAAGGACUGGAUCUACACGGUUACCUAA the figure was 0.0368 ± 0.018; with CUAUUCCUCAGGAUCUUCUGGGUUACCUAA, 0.387 ± 0.052; with CUUAUCCUCUGGAUCUACUGGGUUACCAUAA, 0.452 ± 0.06.
For CUUAAGGAGACCUUCUACUGAGUUACCUAA the value was 0.00528 ± 0.0031; for CUUAUCCUCUGCAUCUACUCGGUUACCUAA, 0.0719 ± 0.013; for CUUAAGGAGAGGAUCUACUGGGUUAUCCUAA, 0.00542 ± 0.0033.
For CUUAUCCUCUGGAUCUGCUGGGUUACCUAA, the “pre-steady-state target cleavage rate” value was found to be 0.425 ± 0.064.
For CUUAAGCUCUGGAUCUACUGGUUUACCUAA the value was 0.0992 ± 0.016; for CUUAAGGUCUCGAUCUACUCGGUUACCUAA, 0.0432 ± 0.0073.
With CUUAAGGUCUGGAUCUACUGGUUACCUAA the figure was 0.0114 ± 0.0052; with CUUUUCCUCUCGAUCUACUGGGUUACCAAA, 0.64 ± 0.048.
With CUUAAGGACUCGAUCUACUGCGUUACCUAA the figure was 0.0122 ± 0.0077; with CUUAAGGAGUGGUUCUACUGGGUUACCUAA, 0.0735 ± 0.012; with GAUUUCCUCUGGAUCUACAGGGUUACCUAA, 0.0988 ± 0.018.
With CUUAAGCUCUGGAUCUACUGGGUUAGCUUA, the “pre-steady-state target cleavage rate” value came to 0.042 ± 0.0072.
For GAAAUCCACUGGAUCUACUGGGUUACCUAA the value was 0.314 ± 0.036; for GAGUUCCUCUGGAUCUACUGGGUUACCUAA, 0.208 ± 0.046; for CAAAACCUCUGGAUCUACUGGGUUACCUAA, 0.205 ± 0.038.
For CUUAUGCUCUGGAUCUACUGGGUUACCAAA the value was 0.203 ± 0.021; for GAAAUCCUCUGGAUCUACUGGGUUUCCUAA, 0.293 ± 0.058.
For CUAUUGCUCUGGAUCUACUGGGUUAGCUAA the value was 0.311 ± 0.05; for CUUAAGGUCUGGAUCUACUGGGUUAGGUAA, 0.0168 ± 0.01; for CUUAAGCUCUGGAUCUACUGGGAUACCUUA, 0.0617 ± 0.012.
Turning to CUUUUCCUGUGGAUCUACUGGCUUACCUAA, the “pre-steady-state target cleavage rate” value stood at 0.0557 ± 0.013.
With CUUAAGGACUGGAUCUACUGGGUUACCUA the figure was 0.133 ± 0.048; with CUUAACCUCUGGAUCUACUGCGUUACCAAA, 0.166 ± 0.029; with CAAUUCCUCUGGAUCAACAGGGUUACCUAA, 0.221 ± 0.03.
For CUUAAGCUCUGGAUCUACUGGGUUUGGUAA the value was 0.0512 ± 0.013.
Turning to CAAUUGCUCUGGAUCUACUGGGUUACCUUA, the “pre-steady-state target cleavage rate” value was found to be 0.212 ± 0.048.
For CAAUUGCUCUGGAUCUAGUGGGUUACCUAA the value was 0.0592 ± 0.0099; for CUUAAGGAGUGGAUAUACUGGGUUACCUAA, 0.0512 ± 0.02.
